Source: the supplement of paper PMC10369915
This is one part of the list. No stated cut-off is given here; in the data, active = 3.2 or more and inactive = the rest. Only a few entries rise above the background.

Experiments:
Assay in all cases: enrichment score (SH2-bound / input frequency) (ratio); bacterial display of known human phosphotyrosine sites (pTyr-Var adds point mutants) read by sequencing; higher = stronger binding; tyrosines were phosphorylated by kinases first
Settings in all cases: peptide library: pTyr-Var
SHP2 C-SH2 domain E139D = biological target: SHP2 C-SH2 domain E139D
[1] = biological target: SHP2 C-SH2 domain wild-type
SHP2 N-SH2 domain L43F = biological target: SHP2 N-SH2 domain L43F
SHP2 N-SH2 domain T42A = biological target: SHP2 N-SH2 domain T42A
SHP2 N-SH2 domain T52S = biological target: SHP2 N-SH2 domain T52S
[2] = biological target: SHP2 N-SH2 domain wild-type
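Further: displayed peptides selected on beads carrying the immobilized SH2 domain, with library peptides lacking any tyrosine serving as negative controls.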

YVSLIYTNYEA [GSTP1_Y109_I105V]
enrichment score (SHP2 C-SH2 domain E139D): active: 3.62
enrichment score [1]: active: 5.38
enrichment score (SHP2 N-SH2 domain L43F): active: 6.15
enrichment score (SHP2 N-SH2 domain T42A): active: 10.3
enrichment score (SHP2 N-SH2 domain T52S): active: 7.94
enrichment score [2]: inactive: 2.98

FVSLIYTNFEA [GSTP1_Y109_I105V_YF]
enrichment score (SHP2 C-SH2 domain E139D): inactive: 1.84
enrichment score [1]: inactive: 1.52
enrichment score (SHP2 N-SH2 domain L43F): inactive: 1.61
enrichment score (SHP2 N-SH2 domain T42A): inactive: 1.5
enrichment score (SHP2 N-SH2 domain T52S): inactive: 1.66
enrichment score [2]: inactive: 1.77

FISLIYTNFEA [GSTP1_Y109_YF]
enrichment score (SHP2 C-SH2 domain E139D): inactive: 1.85
enrichment score [1]: inactive: 1.91
enrichment score (SHP2 N-SH2 domain L43F): inactive: 1.46
enrichment score (SHP2 N-SH2 domain T42A): inactive: 1.76
enrichment score (SHP2 N-SH2 domain T52S): inactive: 1.74
enrichment score [2]: inactive: 2.49

LIFTNYEVGKD [GSTP1_Y112_A114V_YF]
enrichment score (SHP2 C-SH2 domain E139D): inactive: 1.25
enrichment score [1]: inactive: 1.39
enrichment score (SHP2 N-SH2 domain L43F): inactive: 1.32
enrichment score (SHP2 N-SH2 domain T42A): inactive: 1.22
enrichment score (SHP2 N-SH2 domain T52S): inactive: 1.21
enrichment score [2]: inactive: 1.32

VTDGKYAFKPK [GTF2E2_Y137_I133T]
enrichment score (SHP2 C-SH2 domain E139D): inactive: 0.495
enrichment score [1]: inactive: 0.619
enrichment score (SHP2 N-SH2 domain L43F): inactive: 0.686
enrichment score (SHP2 N-SH2 domain T42A): inactive: 0.479
enrichment score (SHP2 N-SH2 domain T52S): inactive: 0.379
enrichment score [2]: inactive: 0.608

IKGIRYLHHQG [GUCY2D_Y656_R660Q]
enrichment score (SHP2 C-SH2 domain E139D): inactive: 1.29
enrichment score [1]: inactive: 1.5
enrichment score (SHP2 N-SH2 domain L43F): inactive: 1.35
enrichment score (SHP2 N-SH2 domain T42A): inactive: 1.15
enrichment score (SHP2 N-SH2 domain T52S): inactive: 1.77
enrichment score [2]: inactive: 1.51

LAAAGYDVEKN [H1-3_Y72]
enrichment score (SHP2 C-SH2 domain E139D): inactive: 0.769
enrichment score [1]: inactive: 0.741
enrichment score (SHP2 N-SH2 domain L43F): inactive: 0.865
enrichment score (SHP2 N-SH2 domain T42A): inactive: 0.591
enrichment score (SHP2 N-SH2 domain T52S): inactive: 0.753
enrichment score [2]: inactive: 0.74

LAAAGYDVKKN [H1-3_Y72_E75K]
enrichment score (SHP2 C-SH2 domain E139D): inactive: 0.542
enrichment score [1]: inactive: 0.732
enrichment score (SHP2 N-SH2 domain L43F): inactive: 1.09
enrichment score (SHP2 N-SH2 domain T42A): inactive: 0.709
enrichment score (SHP2 N-SH2 domain T52S): inactive: 0.768
enrichment score [2]: inactive: 1.06

DSFATYFRRVL [H2BW1_Y84]
enrichment score (SHP2 C-SH2 domain E139D): inactive: 0.431
enrichment score [1]: inactive: 0.296
enrichment score (SHP2 N-SH2 domain L43F): inactive: 0.365
enrichment score (SHP2 N-SH2 domain T42A): inactive: 0.396
enrichment score (SHP2 N-SH2 domain T52S): inactive: 0.423
enrichment score [2]: inactive: 0.339

DSFATYFRWVL [H2BW1_Y84_R87W]
enrichment score (SHP2 C-SH2 domain E139D): inactive: 1.93
enrichment score [1]: inactive: 1.84
enrichment score (SHP2 N-SH2 domain L43F): inactive: 1.61
enrichment score (SHP2 N-SH2 domain T42A): inactive: 1.71
enrichment score (SHP2 N-SH2 domain T52S): inactive: 1.85
enrichment score [2]: inactive: 1.95

SDYYAYSPVQE [H6PD_Y449_R453Q]
enrichment score (SHP2 C-SH2 domain E139D): inactive: 0.656
enrichment score [1]: inactive: 0.818
enrichment score (SHP2 N-SH2 domain L43F): inactive: 0.674
enrichment score (SHP2 N-SH2 domain T42A): inactive: 0.811
enrichment score (SHP2 N-SH2 domain T52S): inactive: 0.592
enrichment score [2]: inactive: 0.805

ERTIEYLEEVA [HADHA_Y239]
enrichment score (SHP2 C-SH2 domain E139D): inactive: 0.962
enrichment score [1]: inactive: 0.764
enrichment score (SHP2 N-SH2 domain L43F): inactive: 0.945
enrichment score (SHP2 N-SH2 domain T42A): inactive: 1.49
enrichment score (SHP2 N-SH2 domain T52S): inactive: 0.857
enrichment score [2]: inactive: 0.905

VRQQVYKKVEE [HADHA_Y283]
enrichment score (SHP2 C-SH2 domain E139D): inactive: 0.561
enrichment score [1]: inactive: 0.768
enrichment score (SHP2 N-SH2 domain L43F): inactive: 0.511
enrichment score (SHP2 N-SH2 domain T42A): inactive: 0.669
enrichment score (SHP2 N-SH2 domain T52S): inactive: 0.429
enrichment score [2]: inactive: 0.646

ALMGLYHGQVL [HADHA_Y343]
enrichment score (SHP2 C-SH2 domain E139D): inactive: 0.486
enrichment score [1]: inactive: 0.908
enrichment score (SHP2 N-SH2 domain L43F): inactive: 0.839
enrichment score (SHP2 N-SH2 domain T42A): inactive: 0.791
enrichment score (SHP2 N-SH2 domain T52S): inactive: 0.919
enrichment score [2]: inactive: 0.785

LEQDEYALRSH [HADHB_Y244]
enrichment score (SHP2 C-SH2 domain E139D): inactive: 0.691
enrichment score [1]: inactive: 0.615
enrichment score (SHP2 N-SH2 domain L43F): inactive: 0.626
enrichment score (SHP2 N-SH2 domain T42A): inactive: 0.402
enrichment score (SHP2 N-SH2 domain T52S): inactive: 0.714
enrichment score [2]: inactive: 0.665

VPFAQYLAMNK [HARS1_Y138_R137Q]
enrichment score (SHP2 C-SH2 domain E139D): inactive: 0.981
enrichment score [1]: inactive: 0.989
enrichment score (SHP2 N-SH2 domain L43F): inactive: 1.13
enrichment score (SHP2 N-SH2 domain T42A): inactive: 0.874
enrichment score (SHP2 N-SH2 domain T52S): inactive: 1.06
enrichment score [2]: inactive: 0.905

HIAKGYRRDNP [HARS1_Y156_V155G]
enrichment score (SHP2 C-SH2 domain E139D): inactive: 0.209
enrichment score [1]: inactive: 0.322
enrichment score (SHP2 N-SH2 domain L43F): inactive: 0.249
enrichment score (SHP2 N-SH2 domain T42A): inactive: 0.228
enrichment score (SHP2 N-SH2 domain T52S): inactive: 0.323
enrichment score [2]: inactive: 0.345

AAGGRYYGLVG [HARS1_Y363_D364Y]
enrichment score (SHP2 C-SH2 domain E139D): inactive: 0.701
enrichment score [1]: inactive: 0.658
enrichment score (SHP2 N-SH2 domain L43F): inactive: 0.724
enrichment score (SHP2 N-SH2 domain T42A): inactive: 0.572
enrichment score (SHP2 N-SH2 domain T52S): inactive: 0.674
enrichment score [2]: inactive: 0.678

KKMKCYHVGKV [HARS2_Y151_R150C]
enrichment score (SHP2 C-SH2 domain E139D): inactive: 2.36
enrichment score [1]: inactive: 2.06
enrichment score (SHP2 N-SH2 domain L43F): inactive: 2.23
enrichment score (SHP2 N-SH2 domain T42A): inactive: 1.94
enrichment score (SHP2 N-SH2 domain T52S): inactive: 2.25
enrichment score [2]: inactive: 2.12
